Laboratory results taken from PMC11861601, “Multitarget mechanism of MYC inhibition by the bacterial lon protease in disease” (Scientific Reports, 2025).

Molecular target: T1, Lon N-terminal domain peptide (aa 1-245) (E. coli, UniProt P0A9M0 1-245)
T1 construct: Lon protease, E. coli, UniProt P0A9M0, N-terminal domain, aa 1-245; also called NTD; NTD peptide; source: E. coli BL21 (DE3), purified (Strep-Tactin Sepharose)
Assay: SPR; Biacore X100; His-tagged ligand (~0.2 µM) captured on Ni-charged Sensor Chip NTA; Lon protein or domain injected at five dilutions; 25 °C, 30 µL/min; running buffer as printed 0.1 M HEPES, 1.5 M NaCl, 0.03 M EDTA, 0.5% v/v Surfactant P20; reference cell without nickel; 1:1 Langmuir fit
Settings: both partners purified

B1: His-tagged MAX (natural protein)
chain: not shown
notes: MAX, human; source: bought: Novus Biologicals, Cat# NBP1-44497
Binder B1 has a Kd of less than 1000 nM.
